Sequences with one replicate were seen in a single cluster, so their values are uncertain.
system: ATP; assay: switch fluorescence ratio, 500 uM ATP over buffer (Cy3 cluster intensity, sum of 5 cycles each) (fold (ratio)); higher = stronger signal-on switching upon ATP binding; sequences stand for … in TCGTCGGCAGCGTCAGATGTGTATAAGAGACAGTTTTTTTTTTTTTTTTTTTTTTTTT…TC; settings: aptamer strand: ATP DNA aptamer (quencher-CACCTGGGGGAGTATTGCGGAGGAAGG + anchor), 100 nM annealed; ATP concentration: 500 uM; one replicate
Outline: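 Imaging in selection buffer was followed by imaging after 15 min with 500 uM ATP at 22 °C, for Cy3-labelled switching-strand clusters annealed to 100 nM quencher-labelled ATP aptamer on a modified Illumina MiSeq flow-cell. Five of these buffer/ATP cycles ran, separated by NaOH stripping and re-annealing. The fluorescence ratio per cluster is summed target-cycle over summed buffer-cycle Cy3 intensity, averaged per switch-domain sequence; clusters outside 100-1000 RFU were removed.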
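Further: ATP exposure 15 min at 22 °C before imaging.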

Sequence	switch fluorescence ratio
ACTTAAAAAA	0.997
ACTTAATAGA	1.01
ACTTAATCG	1.04
ACTTAGGCA	0.993
ACTTATCCGG	1.01
ACTTATTTG	1.02
ACTTCCGGAA	2.56
ACTTCGAGTA	1.04
ACTTCGCGAA	2.17
ACTTCGCTTA	3.21
ACTTCTAAAA	1.07
ACTTCTAAGG	1.05
ACTTCTCCCG	1.52
ACTTCTCTCG	1.15
ACTTCTGGCC	1.07
ACTTGAATCG	0.965
ACTTGAGGAG	0.989
ACTTGCCTAT	0.943
ACTTGGAATT	1.07
ACTTGTGTGT	0.947
ACTTTATAGG	1.02
ACTTTATCAG	1.05
ACTTTCAATC	1.07
ACTTTCAGGG	1.01
ACTTTCGTTG	0.973
ACTTTCTTGT	0.989

Sequence	switch fluorescence ratio
ACTTTGTTT	0.963
ACTTTTGGCT	1
ACTTTTTAGC	0.934
AGAAAACGTG	0.975
AGAAAATCTG	1.03
AGAAACCCTG	0.986
AGAAACGTGG	1.02
AGAAAGATTA	1.01
AGAAATTCCT	1.09
AGAAATTTGT	1.03
AGAACATTTC	1.38
AGAACTTGAG	1.01
AGAAGCACTG	1.16
AGAAGCATGT	1.03
AGAAGCTCCC	1.14
AGAAGCTCCT	0.981
AGAAGGAGG	0.966
AGAAGGGCAT	1.03
AGAAGGTAGC	0.968
AGAAGTATGT	1.04
AGAAGTGTGG	1.01
AGAATAGGTA	1.04
AGAATGACGG	0.997
AGAATGCCGG	1.05
AGAATGGCTC	0.967
AGAATGTCCC	1.02

Sequence	switch fluorescence ratio
AGAATGTCCT	0.996
AGAATTAGCA	0.996
AGAATTGCAG	0.994
AGAATTGGTC	1.05
AGAATTTTCA	1.02
AGACAATACG	1.13
AGACACGGCT	1.06
AGACACGGGT	1.02
AGACACTTAG	1
AGACAGAAAG	0.998
AGACAGCATC	1.11
AGACAGGATA	0.999
AGACAGGTAG	1.02
AGACAGTTCA	0.973
AGACCAGCGT	1
AGACCGAAGC	1.37
AGACCGGCGA	0.991
AGACGCTCAT	1.09
AGACGGAAGG	1
AGACGGATTT	1.07
AGACGGCCCA	1.04
AGACGGCTGT	1
AGACGGTCAC	1.31
AGACGTAAGT	1.04
AGACTATACG	1.07
AGACTATCAG	1.03

Sequence	switch fluorescence ratio
AGACTATTAC	1.11
AGACTCAGAG	0.963
AGACTCAGCT	1.04
AGACTGACCG	1.04
AGACTGATCG	0.991
AGACTGGTCT	0.979
AGACTGTACG	1.07
AGACTTACAT	1.2
AGACTTCCGT	1.09
AGAGAAAAGG	0.975
AGAGAAGCTT	0.94
AGAGAGAGCC	1.01
AGAGAGCTTA	0.987
AGAGAGGCGT	0.996
AGAGAGTGGG	0.993
AGAGAGTGTT	0.979
AGAGATATGG	0.975
AGAGATCTGA	1.01
AGAGATGGGC	0.98
AGAGCACGT	1.04
AGAGCCGAGG	1.02
AGAGCCGGAG	0.957
AGAGCGAGAA	1.04
